Laboratory results from ChEMBL document CHEMBL2331288 (Bioorg Med Chem Lett, 2013).

Target: T1, Interstitial collagenase (Homo sapiens, UniProt P03956)
T1 sequence (P03956 whole entry): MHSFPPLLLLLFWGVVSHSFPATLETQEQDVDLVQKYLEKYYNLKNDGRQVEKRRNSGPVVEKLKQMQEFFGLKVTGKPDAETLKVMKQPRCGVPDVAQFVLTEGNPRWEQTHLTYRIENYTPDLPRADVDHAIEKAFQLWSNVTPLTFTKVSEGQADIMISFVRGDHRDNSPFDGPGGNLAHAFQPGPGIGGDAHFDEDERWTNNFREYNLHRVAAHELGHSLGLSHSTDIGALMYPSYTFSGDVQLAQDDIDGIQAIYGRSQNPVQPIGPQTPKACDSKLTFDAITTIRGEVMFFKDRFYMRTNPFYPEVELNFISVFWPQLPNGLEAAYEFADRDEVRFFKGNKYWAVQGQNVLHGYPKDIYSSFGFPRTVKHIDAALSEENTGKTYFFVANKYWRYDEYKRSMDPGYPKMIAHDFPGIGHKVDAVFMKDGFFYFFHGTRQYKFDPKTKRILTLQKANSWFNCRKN

Row | Compound | IC50 [µM]
1 | O=C(/C=C/c1ccccc1)Nc1ccc(F)cc1 [N-(4-FLUOROPHENYL)CINNAMAMIDE] | 4.26
2 | O=C(/C=C/c1ccc(O)cc1)Nc1ccccc1Cl | 3.45
3 | O=C(/C=C/c1ccccc1)Nc1cccc(F)c1 | 4.19
4 | O=C(/C=C/c1cccc(O)c1)Nc1cccc(O)c1 | 5.28
5 | O=C(/C=C/c1ccccc1)Nc1ccccc1Cl [N-(2-CHLOROPHENYL)CINNAMAMIDE] | 3.16
6 | O=C(/C=C/c1ccc(O)cc1)Nc1ccccc1O | 5.06
7 | O=C(/C=C/c1ccc(O)cc1)Nc1ccc(F)cc1 | 4.54
8 | O=C(/C=C/c1ccc(O)cc1)Nc1ccc(Cl)cc1 | 3.57
9 | COc1cccc(NC(=O)/C=C/c2ccccc2)c1 | 5.26
10 | O=C(/C=C/c1cccc(O)c1)Nc1cccc(Cl)c1 | 3.35
11 | COc1ccccc1NC(=O)/C=C/c1ccccc1 [N-(2-METHOXYPHENYL)CINNAMAMIDE] | 5.18
12 | O=C(/C=C/c1ccc(O)cc1)Nc1cccc(O)c1 | 5.35
13 | Cc1cccc(NC(=O)/C=C/c2cccc(O)c2)c1 | 4.77
